Experimental data published in the antibiotic and cytotoxicity screens of Wong et al. (2023).
The other results are listed elsewhere or left out.

Key:
HSkMC = human skeletal muscle cells; experiment: cytotoxicity call (relative viability < 0.9); conditions: 10 µM
HepG2 = experiment: cytotoxicity call (relative viability < 0.9); conditions: 10 µM
S. aureus RN4220 = experiment: growth inhibition call (relative growth <= 0.2); conditions: 50 µM

Row | Structure (SMILES) | cytotoxicity call (HSkMC) | cytotoxicity call (HepG2) | growth inhibition call (S. aureus RN4220)
1 | NCc1ccno1 | inactive | inactive | inactive
2 | C[C@@H]1CN([C@@H](C)CO)S(=O)(=O)c2ccc(C#CCN(C)C)cc2O[C@@H]1CN(C)Cc1cccnc1 | inactive | inactive | inactive
3 | CO[C@@H]1CN(C)C(=O)c2cc(NC(=O)C3CCOCC3)ccc2OC[C@@H](C)N(C(=O)C2CCOCC2)C[C@H]1C | inactive | inactive | inactive
4 | COc1ccc(-c2cc(=O)c3c(O)cc(O)cc3o2)cc1 | inactive | active | inactive
5 | O=C(NCCC1=CCCCC1)c1sc2ccccc2c1Cl | inactive | inactive | inactive
6 | C[C@H](CO)N1C[C@H](C)[C@@H](CN(C)C(=O)Nc2ccc(C(F)(F)F)cc2)Oc2ccc(NC(=O)CCC(F)(F)F)cc2C1=O | inactive | inactive | active
7 | Cc1ccc(S(=O)(=O)Nc2ccc3c(c2)C(=O)N([C@@H](C)CO)C[C@H](C)[C@H](CN(C)Cc2ccncc2)OCCCC[C@@H](C)O3)cc1 | inactive | inactive | inactive
8 | C[C@@H]1CCCCO[C@@H](CN(C)S(=O)(=O)c2cn(C)cn2)[C@@H](C)CN([C@@H](C)CO)C(=O)c2cc(NS(=O)(=O)c3ccc(F)cc3)ccc2O1 | inactive | inactive | inactive
9 | C[C@H]1CCCN(C(=O)CCNS(=O)(=O)c2ccc3c(c2)c(=O)n(C)c(=O)n3C)C1 | inactive | active | inactive
10 | CC(C)(C)[C@H]1COC(=O)[C@@H](NC(=O)OCC2c3ccccc3-c3ccccc32)CC=CC[C@H](CC(=O)N(CCO)Cc2ccccc2)C(=O)N1 | inactive | inactive | inactive
